Read counts are not given, so values of variants with three or more changes are uncertain.
B1: LINE1-mini (parent)
chain: GGCAGAGCUCAACACAGCGUGGCAAAGUGGCUGUGGCUAGACUGCC

Variants of: B1
Assay: self-cleavage, relative activity (ratio to wild type); higher = more cleavage; in vitro, sequencing; the parent is a self-cleaving ribozyme

| Variant | self-cleavage |
| --- | --- |
| A4U C10A G17U | 0.04 |
| A14C G30C C42A C46U | 0.07 |
| G17C G33A U38G | 0.01 |
| G21C C23G U32C | 0.21 |
| A6G G7U A25C C45U | 0.06 |
| G2U C8U G29A A41U U43A | 0.02 |
| U20A C23U G29U C31U C37A | 0.01 |
| A4C C23U G33U | 0.05 |
| A11U A12G C15U C23G G29A U32G | 0 |
| A4C C31U U32A A41C | 0.01 |
| U9G C15A C18U G29U G36C | 0.02 |
| G2U A4U C8G G27U | 0.18 |
| G2U A4G A14C G40U | 0.02 |
| G2U G7A G29A C37G G40A | 0.02 |
| G17A G35C C42U G44A | 0.02 |
| C31G U34G C42A | 0.02 |
| U9A G19U G22C G36C U38A | 0.03 |
| G19C G27U G40U C42G | 0.02 |
| A4C A14G C18G A25U C42A U43G | 0 |
| C3A C10G G21U U28A | 0.09 |
| G5C C15A C23U A25C G27A A41G | 0.02 |

| Variant | self-cleavage |
| --- | --- |
| G1U G2C C23U A26G | 0.05 |
| A25G U32A C42A | 0.08 |
| G5C G17A C18A C37G | 0.05 |
| G1U G5U A39C | 0.1 |
| G2U C23A U32C | 0.03 |
| G27C U28A G40U | 0.07 |
| G5U A12U G40C | 0.02 |
| A6G C15U G17A A25U | 0.19 |
| C10U A16U G19C G35U A39U G44U C45U | 0.01 |
| C8G U28G C31U | 0.05 |
| G1U C3U G17A C42A | 0.26 |
| A4U C13U G21U U43A C46A | 0.1 |
| A14G C23G G29C U38A | 0.04 |
| A6U C13A G22C C31A C46U | 0.13 |
| G2U C10A G22U C31G | 0.02 |
| G27C G33A U34G C37A C42A | 0.12 |
| G2A A25G G33U | 0.12 |
| G22A G27U C46U | 0.59 |
| G1U A4G C18U U34G | 0.12 |
| C10U G17U G30A C42G | 0.01 |
| C10U A11C C18U | 0.03 |

| Variant | self-cleavage |
| --- | --- |
| A6G C18U G29A | 0.18 |
| A6C U20C G21A U38G A39U | 0.01 |
| C15A G17U C37U C42U U43C C45G | 0.03 |
| U20A U28C G44C | 0.25 |
| G5U C18A G22U C46A | 0.03 |
| A14U C31U A41G | 0.01 |
| G1U C15U C23A | 0.64 |
| G7U A12C A39G | 0 |
| G7U C13U U38A | 0.01 |
| G22C G36U G40A | 0.05 |
| C15G A25C G29U | 0.12 |
| G19U A25U G33C | 0.05 |
| G5U G40U C42A | 0.07 |
| G2A C8U G21A G36A | 1.86 |
| C23A U34G G36A | 0.04 |
| G2A A14U G30U | 0.15 |
| G21C U28G C46U | 1.63 |
| C3G A11G G27A C31U | 0.03 |
| A4U C13A G19A | 0.19 |
| C18U C23A C31G U43A | 0.01 |
| G2A A11U G33C | 0.02 |

| Variant | self-cleavage |
| --- | --- |
| C15A A24U G30U G36C | 0.16 |
| G1A C10G G29C C46A | 0.13 |
| C8A A14G A24U G29A C46U | 0.14 |
| G1A A6C C10G G17U G40A | 0.01 |
| C18U C31G C37U G40C | 0.01 |
| G7A C23A A24G A26G G30A | 0.13 |
| C13A A16U C37A | 0.03 |
| G1A A6U U38A C42A | 0.11 |
| G22U A25U A39U | 1.37 |
| G2A C8G A14G | 0.09 |
| G1C A6U A12G A16U U28C C31G | 0 |
| G7C A11C C15A A39G | 0.01 |
| G21A C23G G29A A41G | 0.7 |
| A16G A25C G27U | 0.55 |
| G21C U28A U32C | 0.35 |
| U38A A39C A41G | 0.2 |
| C18A G19U U43C C46A | 0.11 |
| G2U C3G G21A U28A G36C A41C | 0.14 |
| U20A G21C U32G C37A | 0.02 |
| C3U A6C G19U U28C U32G G40U | 0.05 |
